From paper PMC12136788 come the findings set out here.

The list shows a part of the results.

To fix the notation:
T1: UNK ZnF1-3 (human, UniProt Q9C0B0 31-174)
T1 sequence: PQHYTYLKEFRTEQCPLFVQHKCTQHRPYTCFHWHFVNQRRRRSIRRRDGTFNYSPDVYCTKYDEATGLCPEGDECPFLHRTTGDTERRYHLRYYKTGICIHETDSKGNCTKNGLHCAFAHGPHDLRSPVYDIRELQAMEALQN

B1: chr11:87044496:87044497:-_ENSMUSG00000046442_ENSMUST00000055438|mus_mus|FALSE|FALSE (ssRNA)
RNA: GGGAGUUCUACAGUCCGACGAUCGCAUGGAAUAUCAUUACGCUUUCUGAUCUUCACAUUUCCACUAUAUCCUUCCCAACUAUUUUCCCUCCAUGGCAAAGAACUUCUUAACAUCUUGUUUCUCUUCCCACUUCGAGUAAGUGACAACAGAGGAUUGAGCAUCA
B2: chr16:2011185:2011186:+_ENSG00000140990_ENST00000268668|hu_mus|FALSE|FALSE (ssRNA)
RNA: GGGAGUUCUACAGUCCGACGAUCCACUCGACGGUACUGUCGGUGGUAGUAGUAGGUUCGGUUCUUGGCAUGCUGUCGUUCAAUAAACUCUCUCACGAGGGUCACGGGCCAGUCCACGACGAGGUCGUAGGCCUUCGUCAAGUACAACAGAGGAUUGAGCAUCA
B3: chr6:31620082:31620083:-_ENSG00000204463_ENST00000375976|hu_hu|FALSE|FALSE (ssRNA)
RNA: GGGAGUUCUACAGUCCGACGAUCCUAGCUGACUGCCCGCGUCUACUGCCUUCCCACGGUGUUCCAGCAGAACGGCACAACUAACCCACAGCCAAACACACACACACACACACACACACACACACACACACACACCCACCACCCCAACAGAGGAUUGAGCAUCA
B4: chr4:71802285:71802286:-_ENSMUSG00000008305_ENSMUST00000030095|mus_hu|FALSE|FALSE (ssRNA)
RNA: GGGAGUUCUACAGUCCGACGAUCUGCCGAGGAGGCCGUGGAAGCUGGACUGCUAGAAGCAUCCUUCUUUAGCAGGCGAUUUUUGUCGAUUCCAUUUUCCCGGGGCGAGUGGGCAGGGCUUGCUCGCGGAGAAGAAGGGUCCUCCAACAGAGGAUUGAGCAUCA
B5: chr2:230636304:230636305:-_ENSG00000153827_ENST00000389045|hu_mus|FALSE|FALSE (ssRNA)
RNA: GGGAGUUCUACAGUCCGACGAUCGUACUGAAGAUGGCAGAGCGGGAAGACCGAUUCAAAUCCAUCUCUGAAUGAGUCAAACUGUCGACAAACACCUUCAUUUAGUGCCCAGAAUAUCACCAAUCUCAGGUACUCUUCCAAAUUCAACAGAGGAUUGAGCAUCA
B6: chr9:108846149:108846150:+_ENSMUSG00000025651_ENSMUST00000026743|mus_mus|motif|central (ssRNA)
RNA: GGGAGUUCUACAGUCCGACGAUCGUGCUCUCGAGUGCUGUAGGCAUUAAGAUGAGCCCCAAUACUCUCUACCUCCUUCUCGGAGGCAUUGCCAGGCCGAUUCUUUGUUCCCUUGAAAGCCAGAUGUUCCAAAAAGUAGCCUGCCAACAGAGGAUUGAGCAUCA
B7: chr1:220276048:220276049:+_ENSG00000067704_ENST00000302637|hu_hu|hu_hu_hu_mus_True|28_108 (ssRNA)
RNA: GGGAGUUCUACAGUCCGACGAUCGCAAACAGCUUCAUUGGCGGGAAUUGUCCAAGGCUGGGUGGUCCAAACUAAAACGCUAACAGGGGAUGAGGCAUCUGUAAGAGAUGCCAAUUUCGGAGGAGGUCUCAGGAGGGGGAAUCUCAACAGAGGAUUGAGCAUCA
B8: chr11:87793471:87793472:-_ENSMUSG00000020483_ENSMUST00000020775|mus_mus|mus_mus_mus_hu_False|38_108 (ssRNA)
RNA: GGGAGUUCUACAGUCCGACGAUCUGGGGGCUGGGGAAAAAGAAUAAGCUGGAUCCCCCACCCCCCCACAUUGUCAACCCUACACGAGAGUUUUGAAUGAUUCAUAAGAAAAUCAGCAGCUCAAACGGCAAUGACCACCCCACCCAACAGAGGAUUGAGCAUCA
B9: chr4:57314706:57314707:+_ENSG00000128050_ENST00000264221|hu_mus|hu_hu_hu_mus_True|1_38 (ssRNA)
RNA: GGGAGUUCUACAGUCCGACGAUCCAGAAUUUCAAAAAUAGCUUGUGUGGCAUGACUCAUGAUGUCCACUUCAGUCUGCCCUAUAACAAGGCCAGCAAAGCAAAAUUUUGCAGCAAUGAGUUGCUCCUCAGACCACUGUGGGUCCAACAGAGGAUUGAGCAUCA
B10: chr2:160604994:160604995:+_ENSG00000136536_ENST00000409591|hu_hu|motif|central (ssRNA)
RNA: GGGAGUUCUACAGUCCGACGAUCCCUUGAAGAUUCAUCUCUUCCCUCUCGCCUCCUUCUAGAGAACAAAGGUGUGCAUCGGUUUCGGAGUGAGGAAGAUAACCAUGGUCCUGUAUUUCUACCUUCAGAUUCUUGGUUAAAAUUCAACAGAGGAUUGAGCAUCA
B11: chr12:53619734:53619735:+_ENSMUSG00000035133_ENSMUST00000110725|mus_hu|FALSE|FALSE (ssRNA)
RNA: GGGAGUUCUACAGUCCGACGAUCUAUAUACCCAUGAACUAGUUCAUCUUUUCUUACUCCAAUUGAAGAGUGGUAUGAUAAUAUUGUGAUCUGUAUUCGCCUCCUUUUUUCACCAAUGAUUUUAUCAAGCAUUAGGGAAUUAUUCAACAGAGGAUUGAGCAUCA
B12: chr5:71490574:71490575:+_ENSG00000131711_ENST00000296755|hu_mus|FALSE|FALSE (ssRNA)
RNA: GGGAGUUCUACAGUCCGACGAUCUUUCUCAGCGGGGUUGGCCGGAUGCCACACAAUCAAAGAUGAGACUGAGGUUAAGUAGGAAAUCGGGAUGUCUACUUCUUGACCAUUGGGCAGGAUUAGUUCGGCCUUGUCUUUGUUGGUCAACAGAGGAUUGAGCAUCA
B13: chr7:87826631:87826632:+_ENSG00000008277_ENST00000398209|hu_hu|FALSE|FALSE (ssRNA)
RNA: GGGAGUUCUACAGUCCGACGAUCGCAUCAGCAAACUGUGGAGGCCAGAAGUUUUGCUGGGCAUUUUGUUCUCUCACUCAACUACUCACUCAAUAAAACUGCCUCCAGACUGUGCACAGGUUAAAGGGAUAUCACAUGUUUUGGCAACAGAGGAUUGAGCAUCA
B14: 95033280_95033856_1284_CDS_ENSG00000196305_ENST00000443024|human|control|control (ssRNA)
RNA: GGGAGUUCUACAGUCCGACGAUCGUAGCUGUGAGUGAAGGUGGUGGCAACCAGAAGUCGGCCUUGUUCCUUCAAAGUCCUGAUGAUACUUUUGUCAGCAUCCUUCACAUACUGUCCUGCGAAAUCUGUCACCUCCGUUGUGAACAACAGAGGAUUGAGCAUCA

This experiment deals with T1, UNK ZnF1-3. The experiment in a line: nsRBNS (natural sequence RNA bind-n-seq); RBNS binding buffer (assumed for nsRBNS): 25 mM Tris pH 7.5, 150 mM KCl, 3 mM MgCl2, 0.01% Triton X-100, 500 ug/ml BSA, 20 U/ml SUPERase-In, 4 C; UNK is unkempt and MSI1 is Musashi-1; names of the RNAs are library labels; protein concentration not given here; high values mean tight binding.
Molecule B1 showed a binding signal of 0.619 enrichment R. In turn, B2 gave a binding signal of 0.67 enrichment R. For B3 the value was 1.47 enrichment R; for B4, 0.779 enrichment R; for B5, 1.02 enrichment R. The same measure for B6: 0.76 enrichment R; for B7: 2.68 enrichment R. In the case of B8, the binding signal was found to be 1.42 enrichment R. For the molecule B9, the binding signal stood at 0.781 enrichment R.

B10 came in with a binding signal of 1.2 enrichment R. For B11 the value was 0.616 enrichment R; for B12, 1.07 enrichment R; for B13, 1.76 enrichment R. The same measure for B14: 0.522 enrichment R.
